Hit rate of the full screen: of about 310,000 compounds, about 2,200 (0.71%) showed an effect of 50% or more. Effects have a minus sign here. The list shows a part of the results.
Target: human ether-à-go-go-related gene (hERG) potassium channel (human, UniProt Q12809)
Assay: primary screen, population patch clamp on CHO cells stably expressing hERG

Chain of human ether-à-go-go-related gene (hERG) potassium channel (Q12809 whole entry, looked up): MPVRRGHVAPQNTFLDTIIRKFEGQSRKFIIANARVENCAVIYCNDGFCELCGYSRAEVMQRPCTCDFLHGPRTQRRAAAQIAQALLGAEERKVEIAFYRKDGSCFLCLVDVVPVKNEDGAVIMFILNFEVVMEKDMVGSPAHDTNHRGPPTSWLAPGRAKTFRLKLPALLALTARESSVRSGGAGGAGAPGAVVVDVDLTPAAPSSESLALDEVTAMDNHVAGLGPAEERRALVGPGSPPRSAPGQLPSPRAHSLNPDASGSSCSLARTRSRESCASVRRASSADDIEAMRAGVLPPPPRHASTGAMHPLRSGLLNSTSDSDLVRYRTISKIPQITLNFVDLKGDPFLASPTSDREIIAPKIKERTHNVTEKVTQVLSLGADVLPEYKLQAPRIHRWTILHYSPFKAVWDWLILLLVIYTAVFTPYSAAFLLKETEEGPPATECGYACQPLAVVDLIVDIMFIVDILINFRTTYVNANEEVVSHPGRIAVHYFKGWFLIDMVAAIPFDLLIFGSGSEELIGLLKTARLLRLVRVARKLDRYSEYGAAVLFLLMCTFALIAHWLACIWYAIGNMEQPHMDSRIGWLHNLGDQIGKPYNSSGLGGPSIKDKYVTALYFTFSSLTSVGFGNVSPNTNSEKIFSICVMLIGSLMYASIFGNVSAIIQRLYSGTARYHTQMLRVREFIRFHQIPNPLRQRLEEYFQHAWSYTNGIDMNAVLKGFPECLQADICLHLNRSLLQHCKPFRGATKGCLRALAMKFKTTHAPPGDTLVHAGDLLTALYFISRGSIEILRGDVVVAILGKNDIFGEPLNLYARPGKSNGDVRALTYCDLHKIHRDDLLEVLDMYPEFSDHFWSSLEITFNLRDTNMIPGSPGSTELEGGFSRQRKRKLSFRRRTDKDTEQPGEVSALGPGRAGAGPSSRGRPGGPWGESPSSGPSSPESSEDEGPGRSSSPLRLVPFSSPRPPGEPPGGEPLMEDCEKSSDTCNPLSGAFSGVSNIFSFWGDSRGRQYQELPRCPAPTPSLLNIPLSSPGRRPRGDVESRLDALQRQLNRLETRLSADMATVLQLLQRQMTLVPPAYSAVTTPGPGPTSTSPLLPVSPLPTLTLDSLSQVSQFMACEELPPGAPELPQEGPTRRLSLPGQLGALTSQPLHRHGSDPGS

SMILES | hERG current change (%, negative = inhibition) at 1uM [%]
CCOC(=O)Oc1ccc2oc(C)c(C(=O)OCCOC)c2c1 | 5.12
O=C1CS/C(=N/N=C2CCCC2)N1 | 15.8
Cc1ccc(N2CN(CCC3=CCCCC3)CNC2=S)cc1 | 15.4
O=C(NCCCNC1CCCCC1)c1ccc(/C=N/O)nc1 | 3.46
O=C(c1ccccc1)N1N=C(c2ccccc2)CC1c1ccc2nccnc2c1 (stereo not drawn) | 15.4
C=CCNC(=S)NCCCCC1NC(=S)N(CC=C)C1=O (stereo not drawn) | 13
CC(C)(Oc1ccc(Cl)cc1)C(=O)N1CCN(c2ccccn2)CC1 | -1.81
O=C(COc1ccccc1)Nc1ccc(C(=O)N2CCCC2)cc1 | 13.6
CCOC(=O)C(=N/O)/C(C)=N/NC(=O)C(=O)Nc1ccc(Cl)cc1 | 8.64
COc1ccc(OC)c(CNC(=O)CCn2c(=O)c3cccn3c3ccc(F)cc32)c1 | -39.5
COc1ccccc1-c1nnc(-c2ccc(N3CCOCC3)cc2)o1 | 11.3
O=C(NCCCN1CCOCC1)c1ccccc1NS(=O)(=O)c1cc([N+](=O)[O-])ccc1Cl | 4.47
Cc1ccccc1C(=O)NC1CCN(C(=O)Nc2ccccc2Cl)CC1 | 23.7
Cc1nc2c(C)cccn2c1/C(O)=C1\C(=O)C(=O)N(CCN2CCOCC2)C1c1ccncc1 (stereo not drawn) | 9.88
O=C(COn1nnc2ccc(Cl)cc21)NCc1ccccc1 | 0.51
Cc1ccc(C(=O)NCC(=O)Nc2ccncc2)s1 | 5.61
O=C(NCc1cccnc1)Nc1ccc([N+](=O)[O-])cc1 | 12
Cc1ccccc1CN1[C@@H]2c3ccccc3C[C@@H]2OCCS1(=O)=O | 5.21
CC12CN3CC(c4ccccc4)(CN(C1)C31CCCCC1)C2=O | 9.96
CC1CC(=O)N(Cc2ccccc2)c2ccccc2N1C=O (stereo not drawn) | 5.48
CN1CCc2c([nH]c3ccccc23)C1 | 16.6
Cc1cccc(C(=O)OCC(=O)NN2C(=O)NC3(CCCCC3)C2=O)c1 | 22.3
Cc1ccc(NCc2nnc(SCC(=O)Nc3ncc(C)s3)n2CC2CCCO2)c(C)c1 (stereo not drawn) | 10

SMILES | hERG current change (%, negative = inhibition) at 1uM [%]
CCNc1nc(NCC)nc(ON=C(C)C)n1 | 15.6
Cc1ccc(CNCc2cccnc2)cc1 | 11.4
CCNC(=O)/C(C#N)=C/c1c(N2CCCCCC2)nc2c(C)cccn2c1=O | 5.28
Cc1noc(C(=O)N2CCN(Cc3ccc4c(c3)OCO4)CC2)c1Cl | 6.19
COc1ccc(CN(Cc2ccccn2)S(=O)(=O)c2ccc(-n3cnnn3)cc2)cc1 | -38.8
COCc1cc(=O)[nH]c(N2CCN(C(=O)c3ccco3)CC2)n1 | 12.7
CCN(C(=O)Cn1cnc2cc([N+](=O)[O-])ccc2c1=O)C1CCS(=O)(=O)C1 (stereo not drawn) | 6.06
CCc1cc2c(NCC3CCCO3)ncnc2s1 (stereo not drawn) | 3.89
Cc1cc(C)n(C(=O)c2cc3sccc3[nH]2)n1 | 14.5
C#Cc1ccc([C@H]2C=C(C(=O)N3CCN(Cc4ccccc4)CC3)O[C@@H](OCc3ccc(CO)cc3)C2)cc1 | 2.34
O=C1NC[C@@H](Cc2cccc3ccccc23)N(CCc2cc(C(F)(F)F)cc(C(F)(F)F)c2)C1=O | 16
CCOc1ccc(NC(=O)C[n+]2ccccc2)cc1.[Cl-] | 15.1
CCOC(=O)c1c(C)nc2ccc(C)cn12 | 7.97
CC(=O)c1ccc(OCCCC(=O)Nc2cccc(S(=O)(=O)N3CCCCC3)c2)cc1 | -3.68
O=C1NCCN(C(=O)CCc2nnc(-c3ccsc3)o2)C1c1ccc(F)cc1 (stereo not drawn) | -9.88
COc1nc(N)nc2nc[nH]c12 | 6.99
Cc1cc(C(=O)Nc2ccccc2Cc2ccccc2)no1 | 0.147
CCCC(C(=O)OCCN(CC)CC)(c1ccccc1)c1ccccc1.Cl | 2.9
COc1ccc(-c2c(C3=CCCCC3)oc3ccc(-c4ccc5c(c4)OCO5)cc23)cn1 | 16.2
COc1ccc(F)cc1S(=O)(=O)N1CCN(Cc2ccc3c(c2)OCO3)CC1 | 6.52
COc1ccc(S(=O)(=O)NNC(=O)C2CC(c3cccnc3)=NO2)cc1 (stereo not drawn) | 18.3
Cc1cc(C(=O)COC(=O)CN(C)S(=O)(=O)c2ccc(Cl)cc2)c(C)n1CC1CCCO1 (stereo not drawn) | 6.03
